For assay [1], the system named is mouse CLP model of sepsis. The assay can be described thus: Cecal ligation and puncture (CLP) model of sepsis. The format is in vivo. As for the experimental part: Anti-HMGB1 in Sepsis: To establish live intra-abdominal infection and sepsis, Balb/C mice (9-11 per group) were subjected to the CLP procedure as described previously (Fink and Heard, 1990, J Surg Res 49:186-196; Wichmann et al., 1996, J Surg Res 65, 109-114). After anesthesia with an intramuscular injection of ketamine (75 mg/kg, Fort Dodge Laboratories, Fort Dodge, Iowa) and xylazine (20 mg/kg, Bochringer Ingelheim), a 15-mm midline incision was made to expose the cecum. After ligation 5.0 mm from the tip, the cecal stump was punctured once with a 22-gauge needle, and small amount of stool (1-mm length) was extruded. The cecum was placed back into its normal intra-abdominal position, and the wound was closed with two layers of running suture. All animals received saline-solution (0.9% s.c., 20 ml/kg of body weight) resuscitation, and a single dose of antibiotic (0.5 mg of imipenem per mouse in 200 μl of sterile saline injected s.c.) (Primaxin, Merck) 30 min after surgery.
Anti-HMG1 antibodies or isotype control antibodies (50 μg/mouse in a 200 μl volume), were administered intraperitoneally at 24 and 48 hours, post surgery. In certain follow up experiments anti-HMG1 antibodies or isotype control antibodies (8 mg/kg) were administered intraperitoneally at 24 hours, post surgery (FIG. 11C-D). […] The survival of the mice was monitored twice daily for a total of 14 days. […]

For assay [2], the system named is HMGB1 in AIA joint lysate and sepsis sera. The assay can be described thus: HMGB1 detection from biological samples (ELISA, immunoprecipitation and Western blot). To be noted: ELISA (mouse peritonitis sera), IP (human sepsis sera). It is filed as binding. On the procedure:
(§1) HMGB1 Detection from Biological Samples: For detection of the HMGB1 from AA joint homogenates and peritonitis sera, sandwich ELISA was performed. Goat anti-human Fc (Pierce) 14 μg/ml in PBS was coated on Immunlon IV microtiter plate over night at 4° C. After washing and blocking with 5% milk 1 hr at room temperature, G4 or S6 in blocking buffer (10 μg/ml) were added to each well of the blocked plate. The plate was washed 1 hour later and 25 μl of AIA homogenates containing 0.8 μg/ml of HMGB1 or peritonitis sera containing 7 μg/ml of HMGB1 in 0.5 M NaCl/blocking buffer were added to the wells at two fold serial dilutions. The unbound materials were removed by washing one hr after incubation. The bound HMGB1 was detected by a mouse anti-HMGB1 antibody at 2 μg/ml followed by an anti-mouse antibody conjugated with horseradish peroxidase. Mouse peritonitis sera was obtained by heart puncture 7 days after infection with heat killed staphylococcus aureus. Joint lysate was prepared from the whole paw of AIA rats as described in Example 6 below. Human sepsis sera were purchased from a commercial source.
(§2) Immunoprecipitation and Western Blot: Anti-HMGB1 mAbs (G4 and S6) and isotype control were first biotinylated using EZ-Link Sulfo-NHS-LC-Biotin as instructed by the manufacturer (Pierce). […] The bands were detected by LumiGlo substrate solution (KPL) after washing.

Assay [3] has as its target T1, HMGB1 in AIA joint lysate and sepsis sera (Rattus norvegicus, UniProt P63159).
T1 construct: from tissue; host or cells: whole-paw joint lysate of AIA rats; sera of septic peritonitis mice; purchased human sepsis sera
T1 sequence (P63159 2-215): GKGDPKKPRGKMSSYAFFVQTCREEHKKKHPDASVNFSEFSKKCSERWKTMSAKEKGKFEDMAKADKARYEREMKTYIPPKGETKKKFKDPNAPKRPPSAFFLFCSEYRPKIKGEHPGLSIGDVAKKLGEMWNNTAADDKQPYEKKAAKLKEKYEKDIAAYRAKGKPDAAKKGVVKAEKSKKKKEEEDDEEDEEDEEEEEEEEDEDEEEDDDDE
The assay is described as above. The following applies: ELISA and IP. It is filed as binding. As for the experimental part: as §1, §2
For orientation: An ELISA detects its analyte on a solid surface through an enzyme-linked reagent.

“Also recorded” adds a separate entry of the source.

B1: S6: human anti-HMG1 antibody, ATCC PTA-6143; VL/VH aa SEQ ID NO: 9/11 (antibody, listed as Homo sapiens, V domains shown)
VH: EVQLLESGGGLVQPGGSLRLSCAASGFTFSWYDMSWVRQAPGKGLEWVSRISPSGGYTMYADSVKGRFTISRDNSKNTLYLQMNSLRAEDTAVYYCARLEVGATSGGTAFDIWGQGTMVTVSS
VL: [gap - about 100 residues]
Consider B1, for which the “protection in the CLP model” value in assay [1] (numerous experiments) was “at least 30%”. Besides, the “in vivo CLP” value in assay [1] (percent protection, isotype control subtracted) was 35-50%. Moreover, the “binding / immunoprecipitation of HMGB1 from sepsis sera” value in assay [2] was “better binding to HMGB1 from sepsis sera by ELISA; also recorded: immunoprecipitate smaller band from human sepsis sera; also recorded: brings down a smaller form of HMGB1 from sepsis sera”. Besides, the “binding / immunoprecipitation of HMGB1 from arthritis (AIA) joint lysate” value in assay [3] is recorded as “did not bind or immunoprecipate HMGB1 from arthritis joints; also recorded: does not immunoprecipitate HMGB1 from joint lysates”.

Values taken from patent publication US20080311122A1, “Antagonists of Hmgb1 and/or Rage and Methods of Use Thereof” (Medimmune, LLC, priority 2005, published 2008).
